Screen size: about 220,000 compounds; about 5,700 (2.6%) were called active. The inconclusive results got no clear call from the source; some entries with a clear call stand among them for comparison. Calls follow the shape of the dose curve; as a rule, active = well fitted inhibition curve with a large enough effect; inconclusive = small, poorly fitted or top-dose-only effect; inactive = no such curve, though single readings can be large or run the other way. Potencies of inconclusive entries are doubtful fits and often do not repeat.
Biological target: Lysine-specific demethylase 5B (Homo sapiens) (UniProt Q9UGL1)
UniProt Q9UGL1, sequence (Q9UGL1 whole entry, looked up): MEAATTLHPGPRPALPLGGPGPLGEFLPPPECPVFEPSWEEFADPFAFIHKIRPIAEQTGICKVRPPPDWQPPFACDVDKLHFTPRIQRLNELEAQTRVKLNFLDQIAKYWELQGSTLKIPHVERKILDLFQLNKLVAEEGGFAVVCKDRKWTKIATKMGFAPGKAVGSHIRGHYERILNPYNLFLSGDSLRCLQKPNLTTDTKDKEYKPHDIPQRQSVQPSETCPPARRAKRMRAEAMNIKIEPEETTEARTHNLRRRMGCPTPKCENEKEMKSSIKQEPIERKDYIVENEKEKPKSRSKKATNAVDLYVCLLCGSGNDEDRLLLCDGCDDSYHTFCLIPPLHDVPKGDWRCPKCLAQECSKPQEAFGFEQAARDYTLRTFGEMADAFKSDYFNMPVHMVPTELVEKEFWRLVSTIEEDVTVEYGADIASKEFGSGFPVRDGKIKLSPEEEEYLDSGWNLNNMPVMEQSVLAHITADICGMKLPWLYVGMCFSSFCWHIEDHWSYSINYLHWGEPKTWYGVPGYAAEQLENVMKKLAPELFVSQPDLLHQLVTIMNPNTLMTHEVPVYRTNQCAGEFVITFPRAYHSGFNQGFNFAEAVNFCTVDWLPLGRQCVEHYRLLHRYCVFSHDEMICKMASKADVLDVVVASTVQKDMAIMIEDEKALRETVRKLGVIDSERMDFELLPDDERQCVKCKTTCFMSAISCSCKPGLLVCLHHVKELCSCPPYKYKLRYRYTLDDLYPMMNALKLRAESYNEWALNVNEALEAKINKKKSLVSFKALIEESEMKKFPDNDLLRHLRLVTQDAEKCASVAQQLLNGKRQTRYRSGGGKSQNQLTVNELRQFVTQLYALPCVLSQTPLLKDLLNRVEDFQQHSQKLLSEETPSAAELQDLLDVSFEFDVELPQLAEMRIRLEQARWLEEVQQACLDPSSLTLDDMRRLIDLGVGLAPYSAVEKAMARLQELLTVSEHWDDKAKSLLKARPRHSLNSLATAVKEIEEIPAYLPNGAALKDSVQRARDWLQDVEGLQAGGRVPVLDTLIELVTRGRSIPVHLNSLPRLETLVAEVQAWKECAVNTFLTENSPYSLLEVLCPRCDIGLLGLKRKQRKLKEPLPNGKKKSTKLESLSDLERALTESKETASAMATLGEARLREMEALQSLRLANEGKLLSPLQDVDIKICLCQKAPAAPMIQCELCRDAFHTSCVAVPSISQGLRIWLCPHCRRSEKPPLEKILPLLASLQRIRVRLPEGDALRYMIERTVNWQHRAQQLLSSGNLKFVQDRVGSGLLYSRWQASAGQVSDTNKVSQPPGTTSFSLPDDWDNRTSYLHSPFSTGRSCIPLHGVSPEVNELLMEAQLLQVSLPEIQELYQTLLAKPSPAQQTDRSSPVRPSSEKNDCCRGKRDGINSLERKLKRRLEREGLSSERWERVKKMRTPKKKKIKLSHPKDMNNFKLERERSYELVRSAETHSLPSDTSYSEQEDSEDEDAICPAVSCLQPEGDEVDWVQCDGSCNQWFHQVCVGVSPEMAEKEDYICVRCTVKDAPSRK
Experiment: Primary screen for KDM5B Histone Demethylases FDH-coupled qHTS; also: nearly all actives have a fitted effect of over 70% in size; as to activity change, negative = inhibition: 0% is about no effect
Settings: FDH-coupled NADH fluorescence (FDH is formaldehyde dehydrogenase); activity change, negative = inhibition: at 57.7 µM (top of the series) unless noted
Procedure, shortened: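 qHTS format, multiple compound concentrations. Buffer 50 mM HEPES pH 7.5/0.01% Tween-20; 200 nM KDM5BΔAP final; 10 min compound preincubation; substrate-mix levels 12.5 µM peptide, 25 µM α-KG, 0.25 mM NAD⁺; 30 min RT; ΔRFU.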
Potency is read from the fitted curve at half-maximal effect; tags tell the direction and shape of the fitted curve.

SMILES	activity change, negative = inhibition	Potency
CC(C)Oc1ccc(CNC(=O)C2Cn3cccc3C(=O)N2Cc2ccccc2)cc1 (stereo unspecified)	inactive: 15.9%	
CC(C(=O)NC1CCCC1)N1CCN(Cc2ccccc2)CC1 (stereo unspecified)		inconclusive: 25.1 µM [inhibitor, partial curve, poor fit]
Cc1nc2c(c(-c3ccc(Cl)cc3)n1)CCN(C(=O)Cc1cccc(Cl)c1)CC2	inactive: 13.5%	
CCC(CC)NC(=O)c1cccc(I)c1	inactive: 24.3%	
Cc1cc(C)c(NC(=O)Cn2c(=O)n(-c3cccc(C(F)(F)F)c3)c(=O)c3c(C)c(C)sc32)c(C)c1	inconclusive: -34.6% [inhibitor]	
O=C(COc1ncnc2ccccc12)Nc1ccccc1	inactive: 8.99%	
CN(C)c1ccc(CN2CC[C@H](c3nc4ncccc4[nH]3)C2)cc1	inactive: 18.4% [at 86.2 µM]	
CCOC(=O)c1cc2cc(C(C)CC)ccc2[nH]1 (stereo unspecified)		inconclusive: 22.4 µM [inhibitor, partial curve, poor fit]
COCC1CN(C2CCC2)CC12CCN(C(=O)c1ccccn1)CC2 (stereo unspecified)		inconclusive: 15.8 µM [inhibitor, partial curve, poor fit]
COCCNC(=O)CCn1c(=O)c2cc(OC)c(OC)cc2n(CC(=O)Nc2ccc(F)c(Cl)c2)c1=O		inconclusive: 1.78 µM [inhibitor, full curve, poor fit]
CCNC(=O)N1CCCC1c1nc(C2CCOCC2)no1 (stereo unspecified)		inconclusive: 39.8 µM [inhibitor, single point]
Cc1cc(C)c(C)c(S(=O)(=O)N2CCC(c3c[nH]c4c(C)cccc34)CC2)c1C		inconclusive: 28.2 µM [inhibitor, partial curve, poor fit]
COc1ccc(CN2C(=O)[C@@H]3C[C@@H](CN3Cc3cccs3)Oc3ccccc32)cc1		inconclusive: 25.1 µM [inhibitor, partial curve, poor fit]
Cc1ccc(C(=O)N2CCC(N3CCCC3=O)CC2)cc1	inactive: 30.4% [at 149 µM]	
COCCNC(=O)c1nc(-c2ccc(F)cc2)c2cnccn12		active: 31.6 µM
COc1ccccc1OCC(=O)NCc1cc(C)nc2ccccc12	inactive: 19%	
O=C1Nc2ccccc2CN(Cc2ccc(Cl)cc2)C12CCNC2 (stereo unspecified)		inconclusive: 79.4 µM [inhibitor, partial curve]
COC[C@@H]1CN(C(=O)c2occc2C)C[C@H]1c1ccccn1	inactive: 16.9%	
CCc1noc(-c2ccn3c(CNC(=O)c4cccc(OC)c4)nnc3c2)n1		active: 28.2 µM
CCN1C(=O)c2cccc3c(S(=O)(=O)NC(Cc4ccccc4)C(=O)O)ccc1c23 (stereo unspecified)		inconclusive: 20 µM [inhibitor, partial curve, poor fit]
CN1CCC(N2CCN(C(=O)c3cc4cn(C5CC5)cc4s3)CC2)CC1		inconclusive: 11.2 µM [inhibitor, partial curve]
O=C(Nc1ccc(Cl)cc1Cl)c1cc(S(=O)(=O)N2CCC3(CC2)OCCO3)ccc1F		inconclusive: 39.8 µM [inhibitor, single point]
CCN(CCCNC(=O)CSc1cc(=O)n(C)c2ccccc12)c1ccccc1		inconclusive: 17.8 µM [inhibitor, partial curve, poor fit]
CSc1cccc(NC(=O)CNc2ccccc2C(=O)NC2CC2)c1		inconclusive: 28.2 µM [inhibitor, partial curve, poor fit]

SMILES	activity change, negative = inhibition	Potency
Cc1nc(N(C)C)ncc1C(=O)N[C@@H]1CCOC[C@H]1Oc1ccccn1		active: 25.1 µM
N#Cc1ccc(C(=O)Nc2ccc3c4c(cccc24)CC3)c(F)c1	inactive: 2.74%	
Cc1cc2[nH]c(=O)c(=O)[nH]c2cc1S(=O)(=O)NCc1ccc(F)cc1		inconclusive: 31.6 µM [inhibitor, partial curve, poor fit]
CCOCCCNC(=O)c1ccc2c(c1)NC(=O)C(CS(=O)(=O)Cc1ccc(F)cc1Cl)N2 (stereo unspecified)		inconclusive: 17.8 µM [inhibitor, partial curve, poor fit]
Cc1ccc(-c2nnn(CCC(=O)Nc3sc4c(c3C#N)CCCCC4)n2)cc1	inactive: 5.02%	
COC(=O)c1cccc(C(=O)NCc2cccc(OC)c2)c1	inactive: -4.43%	
COc1ncccc1-c1cnc2[nH]cc(CC(=O)Nc3cccnc3)c2c1		inconclusive: 35.5 µM [inhibitor, single point]
COc1ccc(NC(=O)[C@@H]2C[C@H](c3ccc(F)cc3)N(Cc3csc(C)n3)C2)c(C)c1		inconclusive: 31.6 µM [inhibitor, single point]
CCN(CC1CCN(C2CCN(C)CC2)CC1)C(=O)c1ccc(-c2ccccc2)cc1	inactive: -5.53%	
OCC1CN(C2CCC2)CC12CCN(Cc1ccc(Br)o1)CC2 (stereo unspecified)		inconclusive: 17.8 µM [inhibitor, partial curve, poor fit]
Cc1ccc2cc(C(=O)NCC3CCN(C(C)C)C3)[nH]c2c1 (stereo unspecified)		inconclusive: 35.5 µM [inhibitor, single point]
CCSc1nc2n(n1)C(c1cccs1)C1=C(CC(C)(C)CC1=O)N2 (stereo unspecified)		inconclusive: 25.1 µM [inhibitor, single point]
Cc1cc(C)n2nc(SC(C)C(=O)Nc3ccc(F)cc3Cl)nc2n1 (stereo unspecified)	inactive: 6.34%	
COc1ccc2c(c1OC)C(=O)N(c1ccc(C)cc1)C2		inconclusive: 35.5 µM [inhibitor, single point]
COc1ccc(Cn2c(CNS(=O)(=O)c3ccc(C)c(C)c3)nc3cccnc32)cc1		inconclusive: 15.8 µM [inhibitor, partial curve, poor fit]
COc1ccc(CNS(=O)(=O)c2cc3c(cc2C)N(C)CCO3)cc1	inconclusive: -35.6% [inhibitor]	
CCOC(=O)Cn1c(=O)n(CC2CCCO2)c2nc(-c3ccccc3F)nc(C(N)=O)c21 (stereo unspecified)		inconclusive: 15.8 µM [inhibitor, partial curve, poor fit]
COCCC(=O)N1CCCn2cc(-c3cccc(C#N)c3)nc21		active: 22.4 µM
N#C/C(=C\c1c[nH]c2ccccc12)C(=O)Nc1ccccc1O	inactive: 12.9%	
COC(=O)c1ccc(NC(=O)CCc2c(C)nc3c(-c4ccccc4)c(C)nn3c2C)cc1		inconclusive: 17.8 µM [inhibitor, partial curve, poor fit]
CC1=CC(C)C(C2OCC3(CO2)C(C)C=C(C)CC3C)C(C)C1 (stereo unspecified)	inactive: -17.1%	
CCc1nc2c(c(-c3ccc(Cl)cc3)n1)CN(C(=O)OC)CC2		inconclusive: 39.8 µM [inhibitor, single point]
c1ccc(-c2nc(C3CC3)no2)c(OC2CCNC2)c1 (stereo unspecified)		inconclusive: 22.4 µM [inhibitor, single point]
COc1cccc(CN2CCC(N3C(=O)C4(CCCCC4)C3c3ccncc3)CC2)c1OC (stereo unspecified)		inconclusive: 25.1 µM [inhibitor, single point]

SMILES	activity change, negative = inhibition	Potency
O=C1NCCN(C(=O)Cn2ncc3ccccc3c2=O)C1Cc1cnc[nH]1 (stereo unspecified)	inactive: 1.9%	
Cn1nccc1C(=O)N1CC(=O)N(C2CCCCC2)CC(OCc2ccccc2)C1 (stereo unspecified)	inactive: -3.92%	
CCCNC(=O)CSc1nc2ccccc2nc1Cc1ccc(Cl)cc1	inconclusive: -36.4% [inhibitor]	
CC1C(=O)C(C)C(c2cc(Cl)ccc2O)NC1c1cc(Cl)ccc1O (stereo unspecified)		inconclusive: 17.8 µM [inhibitor, partial curve, poor fit]
Cc1ccc(Oc2ccccc2NC(=O)Cn2nc(C(N)=O)c3ccccc3c2=O)cc1	inactive: 11.2%	
O=C(c1cccc2[nH]ccc12)N1CCC(n2cc(-c3nc(-c4ccccc4)no3)nn2)CC1		active: 28.2 µM
CN(CC(=O)Nc1ccc(Cl)c(C(F)(F)F)c1)C(=O)CN1CCCCC1	inactive: -7.3%	
COCCN1C(=O)c2ccccc2C(C(=O)NCCc2ccc(F)cc2)C12CCCC2 (stereo unspecified)		active: 28.2 µM
O=C(c1cccc(C(F)(F)F)c1)N1CCN(C(=O)C2CC=CCC2)CC1 (stereo unspecified)	inactive: 21.5%	
CC(NC(=O)c1cccs1)C1CC2CCC1C2 (stereo unspecified)	inactive: -8.01%	
CCCN(CCC)CCNC(=O)c1cc2c(-c3ccc(Cl)cc3)nn(C)c2s1		inconclusive: 2.51 µM [inhibitor, full curve, poor fit]
CNCCN1C(=O)CC[C@H]2CN(c3ncc(Cl)cc3F)CC[C@H]21		active: 25.1 µM
Cc1ccc(-n2c(C3CCN(C(=O)c4cc(F)ccc4Cl)CC3)n[nH]c2=O)cc1	inactive: -3.48%	
COc1ccc(-c2cc3c(=O)n(CCNC(=O)c4cccc5[nH]ccc45)ccn3n2)cc1		active: 22.4 µM
Cc1cc(OC(C)C(=O)NCCCn2ccnc2)c2c(C)cc(=O)oc2c1 (stereo unspecified)		inconclusive: 22.4 µM [inhibitor, partial curve, poor fit]
Cc1noc(C)c1Cn1c(=O)c2c(ncn2CCC(C)C)n(Cc2ccccc2)c1=O		inconclusive: 39.8 µM [inhibitor, single point]
CC(=O)Nc1ccc(S(=O)(=O)N2C[C@@H]3C[C@H](C2)c2ccc(-c4ccc5ccccc5c4)c(=O)n2C3)cc1		active: 25.1 µM
CCOC(=O)c1cccc(NC(=O)c2ccc3nc(C(C)C)oc3c2)c1		inconclusive: 28.2 µM [inhibitor, single point]
COc1ccc(-c2cc(C(=O)N3CCCCC3)c3cccc(C)c3n2)cc1		inconclusive: 25.1 µM [inhibitor, partial curve, poor fit]
O=C(O)C(c1c[nH]c2cc(Cl)ccc12)N1CCN(c2ccc(F)cc2)CC1 (stereo unspecified)	inactive: -0.609%	
CCOc1ccccc1NC(=O)N1CCN(C)c2ncccc21		inconclusive: 31.6 µM [inhibitor, partial curve, poor fit]
O=C(NC1CCCc2ccccc21)C1(c2ccccc2)CC1 (stereo unspecified)	inactive: 23.4%	
COCCNC(=O)NC(=O)COC(=O)c1ccc(COc2ccc3c(C)cc(=O)oc3c2)cc1		inconclusive: 12.6 µM [inhibitor, partial curve, poor fit]
